This is an account of results in ChEMBL document CHEMBL1201862, “PubChem BioAssay data set” (2004).

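96-well plates; 48 h exposure; 5 concentrations. Endpoints by linear interpolation between flanking doses. Not reached: highest tested concentration assigned. Abbreviation: GI50, concentration required for 50% inhibition of growth.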 Activity calls are given as the source filed them. Rule as the data show it: active = GI50 up to about 1.1 µM and inactive = higher.

In the assay the test system is NCI-H322M. In words: growth of human tumour cells (NCI), 48 h.
Regarding `CSCCC(NC(=O)C(Cc1c[nH]c2ccccc12)NC(=O)CCNC(=O)OC(C)(C)C)C(=O)NC(CC(=O)O)C(=O)NC(Cc1ccccc1)C(N)=O` (centres undefined), the GI50 is inactive: > 50 µM.

As for `COc1ccc2[nH]c3c(C)c4c(c(C)c3c2c1)CN(C)CC4`, the GI50 is inactive: 25.7 µM.

With `CS(=O)(=O)NNS(=O)(=O)c1ccccc1`, the GI50 is inactive: > 100 µM.

`CC(C)/C(Cl)=N\OC(NC(=O)P(=O)(c1ccccc1)c1ccccc1)(C(F)(F)F)C(F)(F)F`: the GI50 was inactive: 16.1 µM.

Regarding `Cc1cc(O)cc2c1c(=O)c1ccccc1n2C`, the GI50 was inactive: > 100 µM.

Consider `O=C1/C(=C\c2cccc(Oc3ccccc3)c2)S(=O)(=O)C(c2ccccc2)N1c1cccc(Cl)c1` (centres undefined), for which the GI50 is inactive: > 100 µM.

For `Cc1cn(CCCCCOC(=O)NC(CCCNC(N)=O)C(=O)O)c(=O)[nH]c1=O` (centres undefined), the GI50 is inactive: > 100 µM.

Consider `C[C@]12CCc3nonc3C1CC[C@@H]1C2CC[C@@]2(C)C1CC[C@@H]2O` (some centres undefined), for which the GI50 was inactive: > 100 µM.

`C=C1[C@H]2O[C@H]2[C@@H](OC(C)=O)[C@@]2(C)[C@@H](OC(C)=O)C[C@@H](OC(=O)CCC)[C@@](C)(O)[C@@H]2[C@@H](OC(C)=O)[C@]2(O)[C@@H](C)C(=O)O[C@H]2[C@H]1Cl`: the GI50 was inactive: > 100 µM.

On to `C=CCn1c2c(c3ccccc3c1=O)C(=O)c1ccccc1-2`, for which the GI50 was inactive: > 100 µM.

As to `COc1ccc([C@H]2[C@H]3COC(=O)[C@H]3C(C#N)=C3Sc4ccccc4N32)cc1`, the GI50 is inactive: 29.6 µM.

On to `CC1CC[C@@]2(OC1)OC1C[C@H]3[C@@H]4CC[C@H]5CC(OC6OC(CO)C(OC7OC(CO)C(O)C(O)C7OC7OC(CO)C(O)C(O)C7O)C(O)C6O)CCC5(C)[C@H]4CCC3(C)C1[C@@H]2C` (some centres undefined), for which the GI50 was inactive: 1.73 µM.

For the molecule `O=C(Cc1ccccc1)NN1C(=O)/C(=C\c2ccccc2O)S/C1=N\c1ccccc1`, the GI50 is inactive: > 100 µM.

With `O=[N+]([O-])c1ccc2sc(/C=N/c3cnccn3)cc2c1`, the GI50 is inactive: 32.1 µM.

For the molecule `Cc1cccc(C(C)C)c1NC(=O)CCl`, the GI50 was inactive: 70.6 µM.

Take `N#Cc1nc(/C=C/c2cccs2)oc1N`: the GI50 was inactive: 91.6 µM.

With `Cc1cc(S(=O)(=O)Nc2nc(Nc3ccc4ccccc4c3)n[nH]2)c(S)cc1Cl`, the GI50 was inactive: 74.6 µM.

As for `Cc1ccc2c(c1)NC(=O)CCSSCCC(=O)N2`, the GI50 is inactive: > 100 µM.

Consider `C=CCN1CCC(OC(=O)C(O)(C#CC)C2CCCC2)CC1` (centres undefined), for which the GI50 is inactive: > 100 µM.

For `CCc1ncnc2cc(OCC3CO3)c(OC)cc12` (centres undefined), the GI50 is inactive: 13.5 µM.

Turning to `CC(C)(Oc1ccc(C(=O)c2ccc(Cl)cc2)cc1Cl)C(=O)N1CCN(c2ccccc2)CC1`, the GI50 is inactive: > 100 µM.

`CCC1=CC2CC(C(=O)OC)C1(N(C)C)C2=O` (centres undefined): the GI50 was inactive: > 100 µM.

Turning to `Cn1c2ccccc2c2cc(N3CCCC3)c3c(c21)C(=O)N(c1ccccc1)C3=O`, the GI50 is inactive: > 100 µM.

As for `C#CCOC(=O)C(N)CCSC` (centres undefined), the GI50 is inactive: > 100 µM.

In the case of `O=C(O)c1ccc(C=C2Sc3ccccc3S2)cc1`, the GI50 was inactive: > 100 µM.

For the molecule `CC(=O)[C@H]1[C@H](O)C[C@@]2(C)[C@@H]3CCc4cc(O)c(OC5OC(CO)C(O)C(O)C5O)cc4C3(C)C(=O)C[C@]12C` (some centres undefined), the GI50 is inactive: > 100 µM.

On to `CN(C)c1n2c3cc([N+](=O)[O-])ccc3[n+]3c(N(C)C)n4ccccc4c3c2c2cccc[n+]12.[O-][Cl+3]([O-])([O-])[O-].[O-][Cl+3]([O-])([O-])[O-]`, for which the GI50 was inactive: > 100 µM.

On to `[O-][Cl+3]([O-])([O-])[O-].[O-][Cl+3]([O-])([O-])[O-].c1ccn2c(N3CCOCC3)[n+]3c4ccccc4[n+]4c(N5CCOCC5)n5ccccc5c4c3c2c1`, for which the GI50 was inactive: > 100 µM.

Turning to `COc1ccc(C(=O)C#Cc2cnc(O)nc2O)cc1`, the GI50 was inactive: 17.5 µM.
